Source: PubChem BioAssay AID1345083 (National Center for Advancing Translational Sciences (NCATS), 2018)
“And” between values parts separate entries of the source, which are not always exact repeats. Identical values can stand only once. About 6,200 (6.6%) of roughly 94,000 compounds were called active. Inconclusive means that the source gave no clear call. Such entries were picked first, then a sample of the others. Calls come from the whole dose curve; as a rule, active = well fitted inhibition curve with a large enough effect; inconclusive = small, poorly fitted or top-dose-only effect; inactive = flat fitted curve, though single readings scatter. A potency beside an inconclusive call is a rough fit, not a confirmed value.

Test: Cytotoxic Profiling in HEK 293 Cell Line of Diverse Libraries Using Quantitative High-Throughput Screening; note: nearly all actives have a fitted effect of over 60% in size
Details: HEK 293 viability, ATP luminescence (CellTiter-Glo), 48-72 h; activity change, negative = cytotoxicity: at 115 µM (top of the series) unless noted; series mostly up to 115 µM
In short: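 HEK 293 cells at 250 cells/well were exposed to compounds by pintool transfer for 48 or 72 hr at 37 degree Celsius, 5% CO2. Viability was read as ATP-coupled luminescence with CellTiter-Glo after 10 min at room temperature.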
% is set by controls: 0 for no effect and ±100 for the full control effect; potency is the fitted concentration of half-maximal effect; tags give direction and shape of the fitted curve.

Question: Which Potency does the source give for `COCC1CN(Cc2ccc(C(F)(F)F)cc2)CC12CCNCC2` (stereo not given) here?
Answer: Its Potency is inconclusive: 50.1 µM [inhibitor, partial curve, poor fit].

Question: For `O=C(c1ccccc1)N1CCCCC1c1nc(-c2ccccc2)n[nH]1` (stereo not given), which “activity change, negative = cytotoxicity” value is on record?
Answer: The value was inactive: -8.25%.

Question: Which Potency does the source give for `COc1ccc(CCC(=O)NC(C)C(=O)N2CCN(c3ccccn3)CC2)cc1` (stereo not given) here?
Answer: Its Potency is inconclusive: 89.1 µM [inhibitor, single point].

Question: For `Cc1nn(-c2ccc(C(C)(C)C)cc2)c(C)c1[C@@H]1C=C[C@@H](NC(=O)c2ccco2)C1`, which Potency is on record?
Answer: Its Potency is inconclusive: 70.8 µM [inhibitor, partial curve, poor fit].

Question: With `COc1cccc(C(=O)N(C)Cc2cccc(C(F)(F)F)c2)c1` as the compound, how does the Potency read?
Answer: Its Potency is active: 89.1 µM.

Question: With `CCc1cccc(NC(=O)C2Cn3cccc3C(=O)N2)c1` (stereo not given) as the compound, how does the Potency read?
Answer: Its Potency is inconclusive: 63.1 µM [inhibitor, partial curve, poor fit].

Question: For `COCCNC(=O)Cc1c[nH]c2ncc(-c3ccc(OC)cc3)cc12`, which Potency is on record?
Answer: The Potency was inconclusive: 100 µM [inhibitor, partial curve, poor fit].

Question: For `Cc1ccc(-c2cn3c(n2)N(C(=O)Cn2ccnc2C)CCC3)cc1`, which Potency is on record?
Answer: Its Potency is inconclusive: 89.1 µM [inhibitor, single point].

Question: Which Potency does the source give for `CCOC(=O)C1=C(C)N=C2SC=C(CC(=O)N3CCCC3)N2C1c1ccc(Cl)cc1` (stereo not given) here?
Answer: The Potency was inconclusive: 56.2 µM [inhibitor, partial curve, poor fit].

Question: For `Cc1c(CN2CCCC(CNC(=O)c3cccc4ccccc34)C2)[nH]c2ccccc12` (stereo not given), which Potency is on record?
Answer: The Potency was active: 17.8 µM.

Question: For `CCN(Cc1cnn(CC)c1)C(=O)C1CCCCC(=O)N1Cc1cccc(OC)c1` (stereo not given), which “activity change, negative = cytotoxicity” value is on record?
Answer: Its value is inactive: -4.72%.

Question: With `CCN1C(=O)C2(CCN(S(=O)(=O)c3cccc(OC)c3)CC2)c2ccccc21` as the compound, how does the Potency read?
Answer: Its Potency is inconclusive: 50.1 µM [inhibitor, partial curve, poor fit].

Question: For `CCNC(=O)N[C@H]1C[C@@H](Cc2cc(CC(C)C)on2)C1(C)C`, which Potency is on record?
Answer: Its Potency is inconclusive: 79.4 µM [inhibitor, partial curve, poor fit].

Question: Which Potency does the source give for `Cc1ccc(C(=O)N2CCOC(CN(Cc3ccco3)C(=O)c3ccc(F)cc3)C2)cc1` (stereo not given) here?
Answer: The Potency was inconclusive: 35.5 µM [inhibitor, partial curve, poor fit].

Question: Which Potency does the source give for `O=C(c1ccc(Cl)cc1)N1CCN(c2nccc(Nc3ccccc3F)n2)CC1` here?
Answer: Its Potency is inconclusive: 10 µM [inhibitor, full curve, poor fit].

Question: For `O=C(COc1ccc(F)cc1)N1CC(CNC(=O)N2CCCC2)C2(CCOCC2)C1` (stereo not given), which “activity change, negative = cytotoxicity” value is on record?
Answer: Its value is inactive: -8.04%.

Question: Which “activity change, negative = cytotoxicity” value does the source give for `CCOCCN1C(=O)COC[C@@H]1[C@H](O)c1ccc(NC(=O)c2ccc(OC)cc2)cc1` here?
Answer: Its value is inactive: -20.2% [at 172 µM].

Question: With `Cc1ccc(-c2cc(C(=O)N3CCOCC3)c3cnn(C)c3n2)c(C)c1` as the compound, how does the “activity change, negative = cytotoxicity” value read?
Answer: The value was inactive: -12.7%.

Question: For `COc1ccc(OC)c(NC(=O)Cn2c(-c3ccc(F)cc3)nc(C)c(CCO)c2=O)c1`, which Potency is on record?
Answer: Its Potency is inconclusive: 20 µM [inhibitor, full curve, poor fit].

Question: For `C=CCNC(=O)N[C@H]1CO[C@H]2[C@@H]1OC[C@@H]2Nc1nccc(-c2cccc(F)c2)n1`, which Potency is on record?
Answer: Its Potency is inconclusive: 126 µM [inhibitor, single point].

Question: With `FC(F)(F)c1ccccc1-c1ncc[nH]1` as the compound, how does the “outcome” value read?
Answer: Its value is “inactive [at 230 µM]”.

Question: With `Cc1nn(CC(=O)N2CCCCCC2)c(=O)c2nc(-c3ccccc3)sc12` as the compound, how does the Potency read?
Answer: The Potency was inconclusive: 89.1 µM [inhibitor, single point].

Question: For `CN1C(=O)c2cccn2CC1CNC(=O)c1cn[nH]c1-c1ccc(F)cc1` (stereo not given), which “outcome” value is on record?
Answer: The value was “inactive”.

Question: With `O=C(NCCCc1ccccc1)c1nc2sccn2c1-c1ccc(C(F)(F)F)cc1` as the compound, how does the Potency read?
Answer: The Potency was inconclusive: 31.6 µM [inhibitor, full curve, poor fit].

Question: Which Potency does the source give for `CNC(=O)[C@@H](c1ccccc1F)N1CCC[C@H]1C(=O)N(C)Cc1ccccc1` here?
Answer: Its Potency is inconclusive: 89.1 µM [inhibitor, partial curve, poor fit].

Question: For `Cc1ccc(-n2nc(C)c([C@@H]3C=C[C@@H](NS(=O)(=O)c4cccs4)C3)c2C)cc1Cl`, which Potency is on record?
Answer: The Potency was active: 44.7 µM.

Question: Which “activity change, negative = cytotoxicity” value does the source give for `Cn1ncc2c(C(=O)NCCc3ccc(Cl)cc3)cc(-c3ccsc3)nc21` here?
Answer: The value was inactive: -28.9%.

Question: With `COc1ccccc1C(=O)N1CCC2(CC1)NC(=O)N(c1ccc(F)cc1)N2` as the compound, how does the Potency read?
Answer: The Potency was inconclusive: 22.4 µM [inhibitor, full curve].

Question: With `COc1cccc(C(=O)N2CCC3(CC2)CCC(O)(CN(C)C)CC3)c1` as the compound, how does the “activity change, negative = cytotoxicity” value read?
Answer: The value was inactive: 2.4%.

Question: With `COc1ccc(C(=O)N2CCC(N3C(=O)c4c(c(C)nn4-c4ccccc4)C3C3CC3)C2)cc1` (stereo not given) as the compound, how does the Potency read?
Answer: Its Potency is active: 44.7 µM.

Question: Which Potency does the source give for `Cc1nnc(-c2cc(-c3ccccc3Oc3ccccc3)ccn2)n1CCN1CCOCC1` here?
Answer: Its Potency is inconclusive: 56.2 µM [inhibitor, partial curve, poor fit].

Question: For `COc1ccccc1C(=O)N1CCC2(C1)C(=NC1CCCC1)NC(=O)N2c1cc(F)cc(F)c1` (stereo not given), which “outcome” value is on record?
Answer: Its value is “inactive”.

Question: Which Potency does the source give for `Fc1ccc(Cc2nc3nccc(-c4ccc5c(c4)OCCCO5)n3n2)cc1` here?
Answer: The Potency was active: 44.7 µM.

Question: Which Potency does the source give for `O=C(Nc1cccc(F)c1)C1CN(C2CCCCC2)C(=O)N1` (stereo not given) here?
Answer: The Potency was inconclusive: 112 µM [inhibitor, single point].

Question: Which Potency does the source give for `C=CCn1cc2c3c(cccc31)[C@H](CC(C)C)N[C@H](C(=O)NCCN1CCOCC1)C2` here?
Answer: Its Potency is active: 89.1 µM.

Question: For `Cc1ccc(Nc2ccnc(N3CCC(C(=O)NC4CCCC4)CC3)n2)cc1`, which Potency is on record?
Answer: Its Potency is active: 44.7 µM.

Question: Which Potency does the source give for `CCOC(=O)c1ccc(Nc2nc(-c3ccccc3)no2)cc1` here?
Answer: Its Potency is inconclusive: 44.7 µM [inhibitor, partial curve, poor fit].

Question: For `Cn1cc(-c2cnc3[nH]cc(CC(=O)NCC4CCOCC4)c3c2)cn1`, which “activity change, negative = cytotoxicity” value is on record?
Answer: The value was inactive: -11.1% [at 172 µM].

Question: For `COc1cncc(NC(=O)C2=NO[C@@H]3CN(Cc4cccs4)C[C@H]23)c1`, which Potency is on record?
Answer: Its Potency is inconclusive: 79.4 µM [inhibitor, partial curve].

Question: With `CNC(=O)[C@@H]1C[C@H](Oc2ccccc2)CN1C1CCN(Cc2cccc(C#N)c2)CC1` as the compound, how does the Potency read?
Answer: Its Potency is inconclusive: 56.2 µM [inhibitor, partial curve, poor fit].

Question: Which Potency does the source give for `Cc1cc(-c2nn(-c3ccccc3F)cc2CN(C)C(C)c2ccon2)c(C)s1` (stereo not given) here?
Answer: The Potency was inconclusive: 79.4 µM [inhibitor, partial curve, poor fit].

Question: With `Cc1nn2c(c1-c1ccnn1C(C)C)N(Cc1ccc3c(c1)CCO3)CCC2` as the compound, how does the Potency read?
Answer: The Potency was inconclusive: 70.8 µM [inhibitor, partial curve, poor fit].

Question: With `COC(=O)c1ccc(CN2C(=O)[C@@H]3C[C@@H](O)CN3C3(CN(Cc4ccccc4Cl)C3)C2=O)cc1` as the compound, how does the Potency read?
Answer: The Potency was inconclusive: 44.7 µM [inhibitor, partial curve, poor fit].

Question: Which “activity change, negative = cytotoxicity” value does the source give for `COc1ccc2ccccc2c1CNC1CCN(c2ccc(C(=O)N3CCOCC3)cc2)CC1` here?
Answer: The value was inactive: -2.44%.

Question: With `CCN1CCC2(Cc3ccccc3CN(C(=O)Cc3ccc(OC)cc3)C2)C1` (stereo not given) as the compound, how does the “activity change, negative = cytotoxicity” value read?
Answer: Its value is inactive: -9.81%.

Question: With `CCN(CCCNC(=O)CC1=C2CCCCC2N(C)C1=O)c1ccccc1` (stereo not given) as the compound, how does the “outcome” value read?
Answer: Its value is “inactive”.

Question: With `COc1ccc(NC(=O)C2(Cc3cccnc3)CCCCC(=O)N2)cc1F` (stereo not given) as the compound, how does the “activity change, negative = cytotoxicity” value read?
Answer: The value was inactive: 4.63%.

Question: For `Cc1nc(CN2Cc3nc(-c4ccccc4)ccc3OCC2=O)cs1`, which “activity change, negative = cytotoxicity” value is on record?
Answer: Its value is inactive: -24.2% [at 172 µM].

Question: For `O=C(NCc1ccc(C(F)(F)F)cc1)C1(c2ccc(Cl)cc2)CCOCC1`, which Potency is on record?
Answer: The Potency was inconclusive: 35.5 µM [inhibitor, partial curve, poor fit].

Question: Which Potency does the source give for `COCc1cn([C@H]2CO[C@H]3[C@@H]2OC[C@@H]3NC(=O)c2ccc(C(F)(F)F)cc2)nn1` here?
Answer: The Potency was inconclusive: 56.2 µM [inhibitor, full curve, poor fit].

Question: With `Cc1ccccc1-c1nc(-c2c(C)noc2C)cc2cc(CN(C)C)oc12` as the compound, how does the Potency read?
Answer: Its Potency is inconclusive: 89.1 µM [inhibitor, partial curve].

Question: Which Potency does the source give for `Cc1nn(Cc2ccccc2)c(C)c1[C@@H]1C=C[C@@H](NC(=O)NC(C)C)C1` here?
Answer: The Potency was inconclusive: 89.1 µM [inhibitor, partial curve, poor fit].

Question: Which “activity change, negative = cytotoxicity” value does the source give for `COc1ccc(-c2nc3cc(C(=O)NCc4ccccc4F)ccc3o2)cn1` here?
Answer: Its value is inactive: -11.8%.

Question: Which “activity change, negative = cytotoxicity” value does the source give for `COc1cccc(OC)c1CN1CC(O)CN(C(=O)COc2ccccc2)CC1=O` (stereo not given) here?
Answer: Its value is inactive: -8.32%.

Question: Which Potency does the source give for `COc1ccc(CCC(=O)N2CCC3(CC2)CC(Cc2nc(-c4cccnc4)no2)CCO3)cc1` (stereo not given) here?
Answer: The Potency was inconclusive: 35.5 µM [inhibitor, full curve, poor fit].

Question: For `COCC(=O)Nc1nc2c(s1)C[C@]1(C)CC[C@@H]3[C@H](OC(=O)[C@H]3C)[C@H]1[C@@H]2C`, which Potency is on record?
Answer: The Potency was inconclusive: 112 µM [inhibitor, single point].

Question: With `CO[C@H]1CN(C2CCN(C(=O)CC3CCCCC3)CC2)[C@H]1c1cccnc1` as the compound, how does the Potency read?
Answer: Its Potency is inconclusive: 56.2 µM [inhibitor, partial curve, poor fit].

Question: Which Potency does the source give for `COc1cccc(C(=O)N2CCn3c(nn(-c4ccc(C)cc4)c3=O)C2)c1` here?
Answer: The Potency was inconclusive: 50.1 µM [inhibitor, partial curve, poor fit].

Question: For `COc1ccc(-c2cc(N3CCN(C(=O)c4ccc(Cl)cc4OC)CC3)n[nH]2)cc1`, which Potency is on record?
Answer: Its Potency is inconclusive: 50.1 µM [inhibitor, partial curve, poor fit].

Question: With `c1cnc2[nH]cc(-c3nc4ccncc4[nH]3)c2c1` as the compound, how does the Potency read?
Answer: The Potency was “inactive and inconclusive: 126 µM [inhibitor, single point]”.

Question: For `CS(=O)(=O)c1ccc(CN2C[C@H](O)C[C@H]2c2nc(-c3ccc4c(c3)OCO4)no2)cc1`, which “activity change, negative = cytotoxicity” value is on record?
Answer: Its value is inactive: -12.5%.

Question: Which “activity change, negative = cytotoxicity” value does the source give for `COc1ccc(C(=O)N2CCC[C@H]2c2nc(-c3ccc(C)cc3)no2)cn1` here?
Answer: The value was inactive: 3.77%.

Question: Which Potency does the source give for `CCOC(=O)C1=CN(CC(=O)Nc2cccc(Cl)c2)S(=O)(=O)N=C1C` here?
Answer: Its Potency is inconclusive: 89.1 µM [inhibitor, single point].

Question: Which Potency does the source give for `CCc1ccccc1CN1CCC(CO)(CN2CCCC2)CC1` here?
Answer: The Potency was inconclusive: 56.2 µM [inhibitor, partial curve, poor fit].

Question: With `O=C(Nc1cccc(C(F)(F)F)c1)O[C@@H]1CO[C@H]2[C@@H]1OC[C@@H]2Nc1nccc(-c2ccccc2)n1` as the compound, how does the Potency read?
Answer: The Potency was inconclusive: 44.7 µM [inhibitor, partial curve, poor fit].
